First the molecules themselves.
B1: CPEB3 Ribozyme (parent)
chain: UAACAGGGGGCCACAGCAGAAGCGUUCACGUCGCAGCCCCUGUCAGAUUCUGGUGAAUCUGCGAAUUCUGCUGUAUAUCUC

Read counts are not given, so values of variants with three or more changes are uncertain.

The record followed here is the RNAGym collection of RNA variant scans (doi:10.1093/nar/gkz1192).

In the data set the parent is B1. The data set can be described thus: self-cleavage, relative activity (ratio to wild type); higher = more cleavage; in vitro, sequencing. The method in brief:
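Barcoded CPEB3 ribozyme mutants, produced by rounds of error-prone PCR, self-cleaved while being transcribed with T7 RNA polymerase for 5 hours at 37°C and during a subsequent 15 min DNase I step before EDTA was added. Sequencing of template-switched cDNA on Illumina gave cleaved and total reads, and DNA sequencing assigned barcodes to variants. Each variant's relative activity is its cleaved/total read fraction divided by the unmutated ribozyme's fraction, averaged across three batches. A variant needed a minimum of 5 reads.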
On to UAACUGGGGGCCGCAGCAGAAGCGUUCUCGUCGCAGCCCCCGUCGGAUUCUGGUGAUUCUGCGAAUUCCGCUGUAUAUCUC [A5U A13G A28U U41C A45G A57U U69C], for which the self-cleavage turned out to be 0.13.

With UAACUGGGGGCCUCGGCAGAAGCGCUCACGUCGCAGCCCCUGUCAGAUUCUGGUGAAUCUGCGAAUUCUGCUGUAUAUCUC [A5U A13U A15G U25C], the self-cleavage was determined as 0.1.

For UAACUGGGGGCCCCAGCAGAGGCGUUCACGUCGCAGCCCCUGUCAGAUUCUGGUGGAUCUGCGAAUUCUGCUGUAUAUCCC [A5U A13C A21G A56G U80C], the self-cleavage was 0.74.

UAACUGGGGGCCGCAGCAGAAGCGAUCACGUCGCAGCCCCUGACAGAUUCUGGUGAAUCUGCGAAUUCUGCUGUAUAUCUC [A5U A13G U25A U43A]: the self-cleavage was found to be 0.21.

Take UAACGGGGGGCCACAGCAGAAGCGUUCACGUCGCAGCCCCUGUCAGAUUCUGGUGAAUCCGCGAAUUCCGCUGUAUACCUC [A5G U60C U69C U78C]: the self-cleavage turned out to be 0.23.

On to UAACGGGGGGCCACAGCAGAAGCGUUCACGUCGCAGCCCCUGUCAGAUUCUGGUGAAUCUGCGAAUCCUGCUGUAUAACUC [A5G U67C U78A], for which the self-cleavage amounted to 0.33.

With UAACUGGGGGCCGCAGCAGAAGCGUCCACGUCGCAGCCCCUGUCAGGUUCUGGUGAAUCUGUGAAUUCUGCUGUAUAUCUC [A5U A13G U26C A47G C62U], the self-cleavage turned out to be 0.27.

As for UAACUGGGGGCCACAGCUGAAGCGUUCACGUCGCAGCCCCUGACAGAUUCUGGUGAAUCUGCGAAUUCUGCUGUAUAUCUC [A5U A18U U43A], the self-cleavage was found to be 0.78.

UAACUGGGGGCCACAGCUGAAGCGUUCACGUCGCAGCCCCUGCCAGAUUCUGGUGAAUCUGCGAAUUCUGCUGUAUAUCUC [A5U A18U U43C]: the self-cleavage is 0.3.

Regarding UAACUGGGGGCCUCAGCAGAAGCGUUCACGUCACAGCCCCUGUCAGACUCUGGUGAAUCUACGAAUUCUGCCGUAUAUCUC [A5U A13U G33A U48C G61A U72C], the self-cleavage is 0.08.

Regarding UAACUGGGGGCCGCAGCAGAAGCGUUCACGUCGCAGCCCCUGUCAGAUUCUGGUGAGUCUGCGAAUUCUGCUGUAUAUCUC [A5U A13G A57G], the self-cleavage was 0.43.

For the variant UAACUGGGGGCCGCAGCAGAAGCGCUCACGUCGCAGCCCCUGUCAGAUUCUGGUGAAUCUGCGAAUUCUGCUGUAUGUCUC [A5U A13G U25C A77G], the self-cleavage is 0.51.

Turning to UAACUGGGGGCCGCAGCAGAAGCGUUCACGACGCGGACCUUGUCAGAUUCUGGUGAAUCUGCGAGUUCUGCUGUAUAUCUC [A5U A13G U31A A35G C37A C40U A65G], the self-cleavage stood at 0.12.

Regarding UAACUGGGGGCCACAGCGGAAGCGUUCACGUCGCAGCCCCUGUCAGAGUCUGGUGAAUCUGCGAAUUCUGCUGUAUAUCUC [A5U A18G U48G], the self-cleavage came to 0.22.

In the case of UAACUGGGGGCCACAGCGGAAGCGUUCACGUCGCGGCCCCUGUCAGAUUCUGGUGAAUCUGCGAAUUCUGCUGUAUAUCUC [A5U A18G A35G], the self-cleavage was 1.18.

With UAACGGGGGGCCACAGCAGAAGCGUUCACGUCGCAGCCCCUGUCAGAUUCUGGUGAAACCGCGAAUUCUGCUGUAUACCUC [A5G U58A U60C U78C], the self-cleavage was determined as 0.1.

Consider UAACGGGGGGCCACAGCAGAAGCGUUCACGUCGCAGCCCCUGUCAGAUUCUGGUGAAUCUGCGAACUCUGCUGUAUAUCGC [A5G U66C U80G], for which the self-cleavage was 0.27.

As to UAACGGGGGGCCACAGCAGAAGCGUUCACGUCGCAGCCCCUGUCAGAUUCUGGUGAAACUGCGAAUUCUGCUGUAAAUCUC [A5G U58A U76A], the self-cleavage worked out at 0.55.

Take UAACUGGGGGCCACGGCAGAAGCGUUCACGUCGCAGCCCCUGUCAGAUUCUGGUGAAUAUGCGAAUUCUGCUGUAUAUCUC [A5U A15G C59A]: the self-cleavage is 0.31.

Consider UAACUGGGGGCCGCAGCAGAGGCGUUCGCGUCGCAGCCCCUGUCAGAUUCUGGUGAAUCUGCGAAUUCUGCUGUAUAUCUC [A5U A13G A21G A28G], for which the self-cleavage is 0.29.

In the case of UAACUGGGGGCCACAGCGGAAGCGUUCACGUCGCAGCCCCUGUCGGAUUCUGGUGAAUCUGCGAAUUCUGCUGUAAAUCUC [A5U A18G A45G U76A], the self-cleavage was 0.3.

Consider UAACUGGGGGCCGCAGCAGAAGCGUUCACGUCGCAGCCCCCGUCAGAUUCUGGUGAAUCUGCGAAUUCUGCUGUAUAUCUC [A5U A13G U41C], for which the self-cleavage was determined as 0.73.

Take UAACGGGGGGCCACAGCAGAAGCGUUCACGUCGCAGCCCCUGUCAGAUUCUGGUGAAUCUGCGAACUCUGCUGUAUGUCUC [A5G U66C A77G]: the self-cleavage was 0.15.

For the variant UAACUGGGGGCCACAGCGGAAGCGUGCACGUCACAGCCCCUGUCAGAUUCUGGUGAAUCUGCGAGUUCUGCUGUAUAUCUC [A5U A18G U26G G33A A65G], the self-cleavage was determined as 0.09.

As to UAACUGGGGGCCACUGCAGAAGCGUUCGCGUCGCAGCCCCUGUCUGAUUCUGGUGAAUCUGUGAGUUCUGCUGUAUAUCUC [A5U A15U A28G A45U C62U A65G], the self-cleavage worked out at 0.12.

With UAACUGGGGGCCUCAGCAGAAGCGCUCUCGUCGCAGCCCCUGUCAGAUUCUGGUGAAUCUGCGGAUUCUGCUGUAUAUCUC [A5U A13U U25C A28U A64G], the self-cleavage was determined as 0.3.

On to UAACUGGGGGCCACGGCAGAAGCGUUCACAUCGCAGCCCCUGUCAGAUUCUGGUGAAUCUGCGAAUUCUGCUGGAUAUCUC [A5U A15G G30A U74G], for which the self-cleavage came to 0.18.

For UAACUGGGGGCCACAGCGGAAGCGUUCACGUCGCAGCCCCUGUCAGACUCUGGUGAAUCUGCGAAUACUGCUGUAUAUCUC [A5U A18G U48C U67A], the self-cleavage came out at 0.21.

Regarding UAACUGGGGGCCACGGCAGAAGCGUUCAUGUCGCAGCCCCUGUCAGAUUCUGGUGAAUCUGCGAACUCUGCUGUAUAUCUC [A5U A15G C29U U66C], the self-cleavage is 0.27.

Turning to UAACGGGGGGCCACAGCAGAAGCGUUCACGUCGCAGCCCCUGUCAGAUUCUGGUGAAUCUGCGAAUUCAGCUGAAUAUCUC [A5G U69A U74A], the self-cleavage was 0.16.

Turning to UAACGGGGGGCCACAGCAGAAGCGUUCACGUCGCAGCCCCUGUCAGAUUCUGGUGAAUCUGCGAAGUCUGCUGUUUAUCUC [A5G U66G A75U], the self-cleavage was 0.2.

Consider UAACUGGGGGCCACAGCGGAAGCGCUCACGUCGCAGCCCCUGUCAGAUUCUGGUGAAUCUGCGAAUUCUGCUGUAUAUCUC [A5U A18G U25C], for which the self-cleavage turned out to be 0.35.

With UAACUGGGGGCCACGGCAGAAGCGCUCACGUCGCUGCCCGUGACAGAUUCUGGUGAAUCUGCGAAUUCCGCUGUAUAUCUC [A5U A15G U25C A35U C40G U43A U69C], the self-cleavage is 0.24.

As to UAACUGGGGGCCACGGCAGAAGCGUUCACGUCGCAGCCCCUGUCAGAUUCUGGUGAGUCUGCGGAUUCUGCUGUAUAUCUC [A5U A15G A57G A64G], the self-cleavage was determined as 0.75.
